The source of these data is paper PMC4336329 (PLoS ONE, 2015).

SMILES strings stand for the structures. In all, about 310,000 compounds went through this assay and about 2,200 (0.71%) showed an effect of 50% or more. Effects have a minus sign here. The list shows a part of the results. Where a SMILES comes first, the peptide text is derived from it. The star is where a group is joined. Tos = Cc1ccc(S(=O)(=O)*)cc1

In this experiment the target is human ether-à-go-go-related gene (hERG) potassium channel (human, UniProt Q12809). Kind of experiment: primary screen, population patch clamp on CHO cells stably expressing hERG.
human ether-à-go-go-related gene (hERG) potassium channel, sequence (Q12809 whole entry, looked up): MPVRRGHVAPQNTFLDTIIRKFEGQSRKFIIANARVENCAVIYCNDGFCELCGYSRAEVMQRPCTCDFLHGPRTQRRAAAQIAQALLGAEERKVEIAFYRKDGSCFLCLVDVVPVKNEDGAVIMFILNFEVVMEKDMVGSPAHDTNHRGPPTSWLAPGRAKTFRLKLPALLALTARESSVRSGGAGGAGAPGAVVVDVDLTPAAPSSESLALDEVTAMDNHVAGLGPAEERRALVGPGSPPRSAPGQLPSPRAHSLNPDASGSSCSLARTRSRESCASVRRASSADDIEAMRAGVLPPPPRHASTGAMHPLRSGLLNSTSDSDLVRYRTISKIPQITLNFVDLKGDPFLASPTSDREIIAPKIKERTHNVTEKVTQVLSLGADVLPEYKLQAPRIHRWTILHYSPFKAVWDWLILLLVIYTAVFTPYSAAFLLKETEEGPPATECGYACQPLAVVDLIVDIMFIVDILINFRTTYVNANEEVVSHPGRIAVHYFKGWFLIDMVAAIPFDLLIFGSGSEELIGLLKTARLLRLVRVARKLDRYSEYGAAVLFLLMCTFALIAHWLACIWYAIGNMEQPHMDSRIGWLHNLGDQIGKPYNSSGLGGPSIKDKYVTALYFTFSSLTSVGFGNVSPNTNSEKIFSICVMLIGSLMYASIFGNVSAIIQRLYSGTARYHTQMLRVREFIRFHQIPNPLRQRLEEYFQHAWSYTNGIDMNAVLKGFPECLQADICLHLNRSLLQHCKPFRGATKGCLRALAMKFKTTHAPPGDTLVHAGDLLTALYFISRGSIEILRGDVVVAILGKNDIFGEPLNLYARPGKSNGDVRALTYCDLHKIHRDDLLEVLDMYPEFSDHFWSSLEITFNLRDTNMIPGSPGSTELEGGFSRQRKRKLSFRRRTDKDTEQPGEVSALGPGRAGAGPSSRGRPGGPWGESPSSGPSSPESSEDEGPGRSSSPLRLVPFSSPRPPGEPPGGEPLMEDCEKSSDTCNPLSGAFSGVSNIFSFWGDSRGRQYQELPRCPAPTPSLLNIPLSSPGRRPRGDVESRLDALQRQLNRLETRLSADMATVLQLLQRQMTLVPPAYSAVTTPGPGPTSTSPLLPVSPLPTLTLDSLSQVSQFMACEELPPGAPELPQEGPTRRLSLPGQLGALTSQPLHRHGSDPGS
On to `CC1=C(C(=O)OC2CCCC2)C(c2coc3ccc(C)cc3c2=O)C2=C(CCCC2=O)N1` (stereo not shown), for which the “hERG current change (%, negative = inhibition) at 1uM” value was determined as 14.5%. As for `COc1ccc(C(=S)N2CCN(c3ccccc3C)CC2)cc1`, the figure is 8.32%; as for `CCn1cc(/C=C(\NC(=O)c2cc(OC)c(OC)c(OC)c2)C(=O)N2CCN(C)CC2)c2ccccc21`, 10.5%. Next, `Br.CCN(CC)CCn1c(=N)n(CCOc2ccccc2)c2ccccc21`: -8.24%.

For `Cl.O=C(CCN(CCO)Cc1ccccc1)Nc1ccc(Br)cc1`, the “hERG current change (%, negative = inhibition) at 1uM” value amounted to 10.3%. As for `O=C(Nc1ccc(Cl)cc1)c1cccc(OC(=S)N2CCOCC2)c1`, the figure is 4.22%; as for `CCC(C)NC(=O)Cn1c(=O)n(CCCC(=O)NCc2ccccc2Cl)c(=O)c2ccccc21` (stereo not shown), 13.4%. As for `O=[N+]([O-])c1ccc(N2CCOCC2)cn1`, the figure is 13.5%; as for `Cc1ccc(C(=O)NNC(=O)CSc2nnc(C3CC3)n2C)cc1`, 5.02%; as for `Cc1ccccc1CC(=O)NCCN1CCOCC1`, 20.5%.

As for `COc1ccc2cc(-c3csc(-c4cccnc4)n3)ccc2c1`, the “hERG current change (%, negative = inhibition) at 1uM” value is recorded as 14.5%.

`O=C(N/N=C/c1ccccn1)c1cc(-c2ccc(Cl)cc2)nc2ccccc12`: the “hERG current change (%, negative = inhibition) at 1uM” value amounted to 16%. As for `O=c1c2ccccc2[nH]c(=S)n1CCCN1CCN(c2ccccc2F)CC1`, the figure is 16.5%. Next, `Cc1cccc2nc(-c3ccco3)oc(=O)c12`: 22%. As for `CN1[C@@H]2CC[C@H]1CC(OC(=O)C1C=Nc3ccccc31)C2.Cl` (stereo partly shown), the “hERG current change (%, negative = inhibition) at 1uM” value is listed as -23.5%. As for `CCc1ccccc1NC(=O)CNC(=O)CCNC(=O)Nc1ccccc1`, the “hERG current change (%, negative = inhibition) at 1uM” value was 7.01%. As for `CCC1=C(OC(=O)N(CC)CC)N2C(=O)OC(=NCCc3c[nH]c4ccccc34)[C@]2(C)[C@H]2C1=CC[C@H]1C(=O)N(CC(=O)OC)C(=O)[C@H]12`, the figure is 9.15%; as for `CCc1nc(N2CCN(C(=O)c3ccccc3)CC2)c2c3c(sc2n1)CCCC3`, 14.1%. Next, `O=C(Nc1ccncc1)c1ccccc1[N+](=O)[O-]`: 8.77%; `CCOC(=O)c1cc2sccc2n1CC(=O)N1CCc2ccccc21`: 12.8%. As for `O=C(Nc1cccc(S(=O)(=O)N2CCCCC2)c1)C1CC(=O)N(Cc2ccccc2)C1` (stereo not shown), the figure is -1.05%. Turning to `O=C(c1cc(-c2ccc(Br)cc2)on1)N1CCc2ccccc2C1`, the “hERG current change (%, negative = inhibition) at 1uM” value was determined as 13.6%.

Take `Cc1ccnc(NC(=O)c2ccc(NS(=O)(=O)/C=C/c3ccccc3)cc2)c1`: the “hERG current change (%, negative = inhibition) at 1uM” value is 5.37%. As for `CC(=O)Nc1ccc(NC(=O)C(C)OC(=O)CCCOc2ccc(Cl)c(C)c2)cc1` (stereo not shown), the figure is 14.1%. Next, `Fc1cnc(N2CCOCC2)nc1N1CCc2ccccc21`: 14.1%; `CCCOc1ccc(C(=O)N2CCCc3ccccc32)cc1`: 2.91%. As for `COC(=O)c1cc(OC)c(OC)cc1NC(=O)c1ccc(C)cc1`, the figure is -0.757%. For `Cc1cc(C)c2nc(-c3ccccn3)cc(C(=O)Nc3ccc(S(=O)(=O)Nc4cc(C)on4)cc3)c2c1`, the “hERG current change (%, negative = inhibition) at 1uM” value is listed as 9.7%. As for `Cc1ccc(S(=O)(=O)NNC(=O)c2cccc(O)c2)cc1`, the figure is 6.1%; as for `CCN(CC)C(=S)Oc1ccc(Cl)cc1Cl`, 11.7%. Next, `CN(C)/C=N/c1c(C#N)cnn1-c1nc2ccccc2s1`: 7.52%; `Cc1cc(S(=O)(=O)N2CCOCC2)ccc1OCC(=O)NCc1ccco1`: -0.782%.

As for `Cc1cc(C)c(NC(=O)CN2C(=O)NC(CCc3ccccc3)C2=O)c(C)c1` (stereo not shown), the “hERG current change (%, negative = inhibition) at 1uM” value stood at 7.09%. For `CCn1cc(S(=O)(=O)Nc2ncccn2)cn1`, the “hERG current change (%, negative = inhibition) at 1uM” value worked out at 5.11%. As for `CC(C)(C)OC(=O)N1CCN(C(=O)c2nc[nH]c2C(=O)N2CCN(c3ccccc3)CC2)CC1`, the figure is 13.5%. Take `Nc1cccc(NP(=O)(c2ccccc2)c2ccccc2)c1`: the “hERG current change (%, negative = inhibition) at 1uM” value amounted to 9.22%. Next, `COC(=O)c1cc(S(=O)(=O)N2CCN(c3ccccc3)CC2)c[nH]1`: 14.4%; `CCOc1ccc(NC(=O)CSc2ccc(-c3ccco3)nn2)cc1`: 13%; `O=C(c1cccc(F)c1)N1CCCN(C(=O)c2cccc(F)c2)CC1`: 7.61%. Next, `Nc1cc(OC(=O)c2ccc(F)cc2)nn1S(=O)(=O)c1ccccc1`: 16.5%.

Take `Cn1cc(C(=O)c2ccccc2)c2ccccc21`: the “hERG current change (%, negative = inhibition) at 1uM” value was 9.75%. In the case of `COc1ccc(C=O)cc1COc1ccc(F)cc1F`, the “hERG current change (%, negative = inhibition) at 1uM” value worked out at 6.44%. With `CSc1nnc(C2CCN(CC(=O)Nc3ccccc3N3CCOCC3)CC2)n1C(C)C`, the “hERG current change (%, negative = inhibition) at 1uM” value is 6.42%. Next, `Cc1ccc(NC(=O)C2CCN(C(=O)NCc3ccccc3)CC2)cc1C`: 16.2%; `Cc1sc(NC(=O)C2CCCCC2C(=O)O)c(C(N)=O)c1C` (stereo not shown): 5.48%. Next, `CCSc1ncnc2sc(C)c(C)c12`: 6.19%; `COC(=O)C1CCN(C(=O)/C=C/c2ccc3c(c2)OCO3)CC1`: 12.1%; `CC1CCCCC1NC(=O)c1ccc(S(=O)(=O)NCc2ccco2)cc1` (stereo not shown): 13.2%. As for `O=C(NCc1ccc2c(c1)OCO2)C(=O)NCC1OCCCN1S(=O)(=O)c1cc(F)ccc1F` (stereo not shown), the figure is 10.5%; as for `CC(O)C(NS(=O)(=O)c1ccc(Cl)cc1)C(=O)OCc1cc([N+](=O)[O-])cc2c1OCOC2` (stereo not shown), 2.53%.

Regarding `CCC[N+](C)(C)C(C)C(OC(C)=O)c1ccccc1.[I-]` (stereo not shown), the “hERG current change (%, negative = inhibition) at 1uM” value worked out at 7.18%. As for `Cc1cc(C)c2c(=O)[nH]c(=O)n(Cc3ccccc3)c2n1`, the figure is -6.19%; as for `COC(=O)Nc1ccc(S(=O)(=O)N2CCCC(C(=O)Nc3cccc4c3OCCO4)C2)cc1` (stereo not shown), 14%; as for `CCc1nnc(NC(=O)CN2CCN(Cc3ccc(F)cc3)CC2)s1`, 0.777%. Next, `Nc1nc(SCc2ccc(Cl)c(Cl)c2)n[nH]1`: 11.6%; `Cc1c(S(=O)(=O)N2CCN(c3cccc(C(F)(F)F)c3)CC2)c(=O)n(C)c(=O)n1C`: 12.9%.

For `O=C(NNC(=O)C1CCN(C(=O)Nc2ccccc2)CC1)c1ccc(F)cc1`, the “hERG current change (%, negative = inhibition) at 1uM” value is recorded as 11.4%. Next, `NC(=O)c1sc(=S)n(-c2ccc(Br)cc2)c1N`: -8.79%; `CCOC(=O)n1c(=O)n(Cc2cccc(F)c2)c2ccccc21`: 6.33%; `CCOC(=O)c1nonc1NC(C)=O`: 15.9%. As for `NC(=O)C1CCN(CCCNC2CC(=O)N(Cc3ccc(N4CCCC4=O)cc3)C2=O)CC1` (stereo not shown), the figure is 5.72%; as for `O=C(CSc1nc2ccccc2o1)NCC(=O)c1ccccc1`, 1.93%. As for `O=C(CNC(=O)c1ccc2c(c1)OCCO2)N/N=C/c1ccc([N+](=O)[O-])cc1`, the figure is 17.4%; as for `CCOC(=O)Cn1c(=NC(=O)c2ccc([N+](=O)[O-])s2)sc2ccccc21`, -2.02%; as for `COc1ccc(S(=O)(=O)N2CCN(c3nc(-c4cccnc4)nc4ccccc34)CC2)cc1`, -1.23%. In the case of `CCCCC(OC(=O)c1ccco1)C(=O)NCc1ccc(C)cc1` (stereo not shown), the “hERG current change (%, negative = inhibition) at 1uM” value amounted to 15.5%.

With `O=S(=O)(NCc1ccco1)c1cnc(Cl)c(Cl)c1`, the “hERG current change (%, negative = inhibition) at 1uM” value is -1.15%. On to `COc1ccccc1NC(=O)/C=C/c1cc([N+](=O)[O-])ccc1OC(F)F`, for which the “hERG current change (%, negative = inhibition) at 1uM” value was 5.21%. Next, `CC(C)C1Nc2ccc(C(=O)NCc3ccco3)cc2NC1=O` (stereo not shown): 11.7%.

In the case of `Cc1c(NC(=S)NC(=O)c2cccc(Cl)c2)c(=O)n(-c2ccccc2)n1C`, the “hERG current change (%, negative = inhibition) at 1uM” value stood at 15.8%. Regarding `COCCCn1c(SCC(=O)Nc2ccc(C(C)=O)cc2)nc2ccccc2c1=O`, the “hERG current change (%, negative = inhibition) at 1uM” value is -10%. Next, `COc1cccc(NC(=O)CN(c2cccc(OC)c2)S(C)(=O)=O)c1`: 4.73%. For the molecule `O=C1C=C(NC2CC2)C2(CCCCC2)O1`, the “hERG current change (%, negative = inhibition) at 1uM” value amounted to 7.87%.

As to `O=C1c2ccccc2C(=O)N1Cc1nn2c(-c3ccc(Cl)cc3)nnc2s1`, the “hERG current change (%, negative = inhibition) at 1uM” value turned out to be 7.09%.

Take `Cc1ccc(S(=O)(=O)N[C@@H](CO)C(=O)N[C@@H](Cc2ccc(O)cc2)C(=O)O)cc1` (Tos-Ser-Tyr-OH): the “hERG current change (%, negative = inhibition) at 1uM” value is listed as 16.7%. Next, `COc1cc(-c2nnc(-c3ccccc3)o2)cc(OC)c1OC`: 1.5%; `COc1cccc(NS(=O)(=O)CC23CCC(CC2=O)C3(C)C)c1` (stereo not shown): 28.2%; `CC(C)c1onc(C(=O)N2CCN(C(c3ccccc3)c3ccccc3)CC2)c1[N+](=O)[O-]`: 12.4%.

Take `O=C(c1ccc(N2CCCC2)c([N+](=O)[O-])c1)N1CCN(c2ccccn2)CC1`: the “hERG current change (%, negative = inhibition) at 1uM” value amounted to 7.3%. Consider `Cc1nc(S(=O)(=O)c2ccc(Cl)cc2)nc2c1CCC2`, for which the “hERG current change (%, negative = inhibition) at 1uM” value was 0.296%.

Turning to `CN(Cc1ccccc1Br)C(=O)CSc1nnnn1C1CC1`, the “hERG current change (%, negative = inhibition) at 1uM” value is on record as 2.55%. As for `CCOC(=O)CSC1=C(C#N)C(c2ccc(C)cc2)C2=C(CCCC2=O)N1` (stereo not shown), the figure is 7.86%. Next, `COc1ccccc1CNn1c(-c2cccc(C)c2)nc2ccccc2c1=O`: 5.72%.

Take `Cc1cc(NC(=O)COc2ccc3ccccc3c2)no1`: the “hERG current change (%, negative = inhibition) at 1uM” value was found to be 19.6%. As for `CC1(C)CC(=O)C=C(NCc2cccs2)C1`, the “hERG current change (%, negative = inhibition) at 1uM” value turned out to be 7.23%. With `Cc1cc(NC(=O)c2ccccc2F)cc(C)c1OCC(=O)N1CCOCC1`, the “hERG current change (%, negative = inhibition) at 1uM” value was determined as 5.54%. Next, `CCOC(=O)N1CCC(NC(=S)Nc2ccc3nc(N4CCN(CC)CC4)cc(C)c3c2)CC1`: 20.6%; `CC(=O)c1c(C)[nH]c(C(=O)OCCOc2ccccc2)c1C`: -11.3%.
